Assay results: the supplement of paper PMC10338343
± gives the standard deviation. The entries are a selection whose mix differs from that of the whole data set.

Tested on: MIWI (PIWIL1) piRISC loaded with L1MC piRNA (30 nt)
Assay: pre-steady-state target cleavage rate (min^-1); MIWI and MILI are mouse PIWI proteins and EfPiwi is from a freshwater sponge; tags in brackets are library labels; higher = faster piRNA-guided slicing of the target
Conditions: guide: L1MC piRNA 5'p-UAACUAAAUACUAUGCAAGCUGUAGGUCCU
Method in brief: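 Cleave-'n-Seq: 1 nM active affinity-purified piRISC with one synthetic guide and 0.1 nM transcribed, DNA-blocked target RNA library were mixed, with or without 500 nM GTSF1 partner protein, in HEPES–potassium acetate buffer at 33 °C for 0–8 or 0–960 min. Uncleaved targets were sequenced and normalised to depth and to weakly complementary targets, three trials were pooled, and k3 was capped at 0.0001 min^-1. The pre-steady-state cleavage rate was fitted […].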

[1] = auxiliary factor: 500 nM mouse GTSF1
[2] = auxiliary factor: none (no GTSF1)

UCCACGUACAGCUUGCAUAGUAUUUAGAUA
pre-steady-state target cleavage rate [1]: 0.33 ± 0.025
pre-steady-state target cleavage rate [2]: 0.0188 ± 0.0033

UCCACCUACAGCUAGCAUAGUAUUUAGUAA
pre-steady-state target cleavage rate [1]: 0.413 ± 0.045
pre-steady-state target cleavage rate [2]: 0.00723 ± 0.0023

UCCUGGAUCACCUUGCAUAGAAUUUAGUUA
pre-steady-state target cleavage rate [1]: 0.0649 ± 0.022
pre-steady-state target cleavage rate [2]: 0.00594 ± 0.0019

UCCUGGAUGUGCUUGGAUAGUAAUUAGUUA
pre-steady-state target cleavage rate [1]: 0.0587 ± 0.013
pre-steady-state target cleavage rate [2]: 0.0105 ± 0.0032

UCGACCUACAGCUCUGCAUAGUAUUUAGUUA
pre-steady-state target cleavage rate [1]: 1.32 ± 0.067
pre-steady-state target cleavage rate [2]: 0.0476 ± 0.0099

UCCUCCUACAGCUAGCAUAGUAUUUAGUUA
pre-steady-state target cleavage rate [1]: 0.838 ± 0.03
pre-steady-state target cleavage rate [2]: 0.016 ± 0.0034

UCCUCCUACAGCUUGCAUGUAUUUAGUUA
pre-steady-state target cleavage rate [1]: 0.428 ± 0.051
pre-steady-state target cleavage rate [2]: 0.00445 ± 0.0018

AGGACCUACAGCAUUGCAUAGUAUUUAGUUA
pre-steady-state target cleavage rate [1]: 1.28 ± 0.12
pre-steady-state target cleavage rate [2]: 0.0689 ± 0.014

UCGACCUACAGCUUGCAGAGUAUUUAGUUA
pre-steady-state target cleavage rate [1]: 1.05 ± 0.066
pre-steady-state target cleavage rate [2]: 0.0315 ± 0.0073

UCGACCUACAGCUUGCUUAGUAUUUAGAUA
pre-steady-state target cleavage rate [1]: 0.379 ± 0.032
pre-steady-state target cleavage rate [2]: 0.0129 ± 0.0033

UCCUGGAUGAGCUGGCAUAGUAUUUAGUUA
pre-steady-state target cleavage rate [1]: 0.643 ± 0.04
pre-steady-state target cleavage rate [2]: 0.0166 ± 0.0037

AGGUCCUAGAGCUUGCAUAGUAUUUAGUUA
pre-steady-state target cleavage rate [1]: 1.08 ± 0.057
pre-steady-state target cleavage rate [2]: 0.0655 ± 0.012

UCCUGCUACAGCGUGCAUAGUAUUUAGUUA
pre-steady-state target cleavage rate [1]: 1.27 ± 0.074
pre-steady-state target cleavage rate [2]: 0.0183 ± 0.005

UGGACCUUCAGCAUGCAUAGUAUUUAGUUA
pre-steady-state target cleavage rate [1]: 1.24 ± 0.066
pre-steady-state target cleavage rate [2]: 0.0343 ± 0.0072

UCCACCUACAGUUGCAUAGUAUUUAGUUA
pre-steady-state target cleavage rate [1]: 0.641 ± 0.057
pre-steady-state target cleavage rate [2]: 0.00435 ± 0.0019

AGGACCUACAGCUUGCAUAGUAUUUAGUUG [g2:g30:cont:t1G]
pre-steady-state target cleavage rate [1]: 0.455 ± 0.046
pre-steady-state target cleavage rate [2]: 0.0773 ± 0.018

UCCUGGUAGAGCUUGCAUAGUAUUUUGUUA
pre-steady-state target cleavage rate [1]: 0.462 ± 0.05
pre-steady-state target cleavage rate [2]: 0.015 ± 0.005

UCCUGCUACAGCUUGCAUAGUGAUUUAGUUA
pre-steady-state target cleavage rate [1]: 0.0926 ± 0.018
pre-steady-state target cleavage rate [2]: 0.00463 ± 0.0028

UCCACCUUCAGCUUGCAUAGUAAUUAGUUA
pre-steady-state target cleavage rate [1]: 0.6 ± 0.051
pre-steady-state target cleavage rate [2]: 0.018 ± 0.0044

UGGACCUACAGCUUGCUUAGAAUUUAGUUA
pre-steady-state target cleavage rate [1]: 0.255 ± 0.022
pre-steady-state target cleavage rate [2]: 0.00925 ± 0.0033
